These results are taken from a collection of fitness landscapes (doi:10.1126/science.1257360).

The list shows a part of the results. Some results are limits rather than exact numbers.

B1: PhoQ; a variant is named by its letters at X, in order, P23837 (parent)
chain: MKKLLRLFFPLSLRVRFLLATAAVVLVLSLAYGMVALIGYSVSFDKTTFRLLRGESNLFYTLAKWENNKLHVELPENIDKQSPTMTLIYDENGQLLWAQRDVPWLMKMIQPDWLKSNGFHEIEADVNDTSLLLSGDHSIQQQLQEVREDDDDAEMTHSVAVNVYPATSRMPKLTIVVVDTIPVELKSSYMVWSWFIYVLSANLLLVIPLLWVAAWWSLRPIEALAKEVRELEEHNRELLNPATTRELTSLVRNLNRLLKSERERYDKYRTTLTDLTHSLKTPLXXLQXXLRSLRSEKMSVSDAEPVMLEQISRISQQIGYYLHRASMRGGTLLSRELHPVAPLLDNLTSALNKVYQRKGVNISLDISPEISFVGEQNDFVEVMGNVLDNACKYCLEFVEISARQTDEHLYIVVEDDGPGIPLSKREVIFDRGQRVDTLRPGQGVGLAVAREITEQYEGKIVAGESMLGGARMEVIFGRQHSAPKDE

This assay covers variants of B1. The assay is described as follows: enrichment ratio after two sorts for PhoP signalling (ratio (wild type AVST 3.29)); higher = more functional. As to conditions: with PhoP (E. coli).
In the case of HVAF, the enrichment ratio is not above 0.25.

Turning to HVGM, the enrichment ratio is not above 0.25.

For the variant FRNN, the enrichment ratio is not above 0.25.

For FRGA, the enrichment ratio was not above 0.25.

Take HFPA: the enrichment ratio was not above 0.25.

With RERL, the enrichment ratio is not above 0.25.

On to LAMA, for which the enrichment ratio was not above 0.25.

For the variant WWMH, the enrichment ratio was not above 0.25.

PWFN: the enrichment ratio is not above 0.25.

Regarding EVTP, the enrichment ratio is not above 0.25.

Consider GMQP, for which the enrichment ratio was not above 0.25.

In the case of SWPD, the enrichment ratio is not above 0.25.

On to FIDD, for which the enrichment ratio is not above 0.25.

Take AHCY: the enrichment ratio is 12.7.

As for PQPY, the enrichment ratio was not above 0.25.

With SRPW, the enrichment ratio is not above 0.25.

Take GIFT: the enrichment ratio was not above 0.25.

As to WLQY, the enrichment ratio was not above 0.25.

As for QCWT, the enrichment ratio is not above 0.25.

YMIE: the enrichment ratio was not above 0.25.

With SEYF, the enrichment ratio came out at 3.94.

HPGH: the enrichment ratio was not above 0.25.

Consider TACQ, for which the enrichment ratio amounted to 15.

For PRIK, the enrichment ratio is not above 0.25.

Regarding MYSN, the enrichment ratio is not above 0.25.

Regarding GEAC, the enrichment ratio was not above 0.25.

For the variant MSIG, the enrichment ratio is not above 0.25.

THQS: the enrichment ratio was determined as 1.05.

On to LPYL, for which the enrichment ratio is not above 0.25.

As for YVPK, the enrichment ratio is not above 0.25.

Turning to MNKD, the enrichment ratio was not above 0.25.

Consider SVKW, for which the enrichment ratio is not above 0.25.

For HGQI, the enrichment ratio was not above 0.25.

As for SNGP, the enrichment ratio is not above 0.25.

Regarding MWTI, the enrichment ratio is not above 0.25.

Turning to PMFF, the enrichment ratio was not above 0.25.

Turning to IGGK, the enrichment ratio was not above 0.25.

Consider QKYN, for which the enrichment ratio was not above 0.25.

With VPAH, the enrichment ratio is not above 0.25.

With SDCI, the enrichment ratio was found to be 4.22.

With DDQV, the enrichment ratio is not above 0.25.

In the case of FAQG, the enrichment ratio was not above 0.25.

For the variant INWV, the enrichment ratio was not above 0.25.

As for QPKE, the enrichment ratio is not above 0.25.

With LYET, the enrichment ratio was not above 0.25.

Turning to SPTN, the enrichment ratio was not above 0.25.

As to MKTD, the enrichment ratio is not above 0.25.

Consider ADNS, for which the enrichment ratio is not above 0.25.

Regarding RTWW, the enrichment ratio was not above 0.25.

As for NKPR, the enrichment ratio was not above 0.25.

For the variant FSGG, the enrichment ratio is not above 0.25.

As for QERS, the enrichment ratio is not above 0.25.

As to ENMI, the enrichment ratio was not above 0.25.

Regarding WQHG, the enrichment ratio is not above 0.25.

As to LIQY, the enrichment ratio is not above 0.25.

DFHG: the enrichment ratio is not above 0.25.

For the variant DKSQ, the enrichment ratio is not above 0.25.

For KNAF, the enrichment ratio was not above 0.25.

Consider VFNM, for which the enrichment ratio was not above 0.25.

As for WQRH, the enrichment ratio is not above 0.25.

For AVTL, the enrichment ratio worked out at 12.5.

Consider WCSN, for which the enrichment ratio was not above 0.25.

As to GVCQ, the enrichment ratio amounted to 11.

As for STNY, the enrichment ratio was 14.2.

On to RWTT, for which the enrichment ratio is not above 0.25.

Take NGGP: the enrichment ratio was not above 0.25.

Regarding QVWY, the enrichment ratio is 1.35.

In the case of RHFD, the enrichment ratio is 0.682.

For the variant FWQM, the enrichment ratio is not above 0.25.

FERL: the enrichment ratio was not above 0.25.

Consider NEAL, for which the enrichment ratio is not above 0.25.

Regarding LTLV, the enrichment ratio turned out to be 1.55.

With DAMR, the enrichment ratio is not above 0.25.

With SFLM, the enrichment ratio is 4.5.

Regarding CTCP, the enrichment ratio was not above 0.25.

Consider FISW, for which the enrichment ratio was not above 0.25.

For the variant NFNV, the enrichment ratio is not above 0.25.

Turning to SAEG, the enrichment ratio was not above 0.25.

Regarding IRLL, the enrichment ratio is not above 0.25.

Take PQYA: the enrichment ratio was not above 0.25.

TWKI: the enrichment ratio was not above 0.25.

As for KLTE, the enrichment ratio was not above 0.25.

For the variant YLCH, the enrichment ratio amounted to 0.441.

Consider TVNI, for which the enrichment ratio turned out to be 12.6.

As for YMLN, the enrichment ratio was not above 0.25.

Take WSIR: the enrichment ratio turned out to be 0.354.

With VEDL, the enrichment ratio was not above 0.25.

For ETNI, the enrichment ratio is not above 0.25.

Consider WKAL, for which the enrichment ratio is not above 0.25.

Consider ITFF, for which the enrichment ratio is not above 0.25.

As to FFAE, the enrichment ratio was not above 0.25.

TQEY: the enrichment ratio was not above 0.25.

As to HLLW, the enrichment ratio was not above 0.25.

Take HIER: the enrichment ratio is not above 0.25.

For QGPY, the enrichment ratio was not above 0.25.

On to WAPW, for which the enrichment ratio was not above 0.25.

For LFVR, the enrichment ratio was not above 0.25.

As for HGDG, the enrichment ratio is not above 0.25.

In the case of KCNC, the enrichment ratio is not above 0.25.

Turning to DHTP, the enrichment ratio was not above 0.25.

In the case of SGFP, the enrichment ratio is not above 0.25.

Turning to TKFL, the enrichment ratio turned out to be 10.2.

NVDH: the enrichment ratio is not above 0.25.

Consider FKVH, for which the enrichment ratio is not above 0.25.

For FEMR, the enrichment ratio is not above 0.25.

For the variant NKQG, the enrichment ratio is not above 0.25.

For the variant IKAI, the enrichment ratio is not above 0.25.

On to SHGE, for which the enrichment ratio is not above 0.25.

On to VFFS, for which the enrichment ratio was not above 0.25.

Regarding QLVQ, the enrichment ratio was not above 0.25.

PKMA: the enrichment ratio is not above 0.25.

FWKY: the enrichment ratio was not above 0.25.

Consider EYLM, for which the enrichment ratio is not above 0.25.

Take EDAK: the enrichment ratio was not above 0.25.

EMHC: the enrichment ratio is not above 0.25.

For GLSQ, the enrichment ratio is not above 0.25.

Consider MPDH, for which the enrichment ratio is not above 0.25.

Turning to PHGE, the enrichment ratio is not above 0.25.

Regarding LGKT, the enrichment ratio is not above 0.25.

Take NCTS: the enrichment ratio is not above 0.25.

As for IKNN, the enrichment ratio was not above 0.25.

In the case of GCIF, the enrichment ratio is not above 0.25.

Regarding KDWY, the enrichment ratio was not above 0.25.

As for EHDD, the enrichment ratio is not above 0.25.

Turning to VLGE, the enrichment ratio was not above 0.25.

For the variant HIYD, the enrichment ratio was not above 0.25.

Regarding FWAK, the enrichment ratio is not above 0.25.

As to AAHK, the enrichment ratio is not above 0.25.

Take YKQR: the enrichment ratio was not above 0.25.

For the variant DSCM, the enrichment ratio was not above 0.25.

Regarding FHIQ, the enrichment ratio was not above 0.25.

In the case of LWLS, the enrichment ratio was not above 0.25.

Turning to EHMI, the enrichment ratio is not above 0.25.

In the case of SRGD, the enrichment ratio is not above 0.25.

With GTQS, the enrichment ratio is not above 0.25.

KLRV: the enrichment ratio is not above 0.25.

For TRMY, the enrichment ratio is 0.856.

DYED: the enrichment ratio is not above 0.25.

As to TPPH, the enrichment ratio was not above 0.25.

Take KRKH: the enrichment ratio is not above 0.25.

As to QNKQ, the enrichment ratio was not above 0.25.

Regarding DDGT, the enrichment ratio was not above 0.25.

With NWFA, the enrichment ratio was not above 0.25.

In the case of SCYS, the enrichment ratio is 0.535.

As for FWIN, the enrichment ratio was not above 0.25.

For the variant YKAC, the enrichment ratio was not above 0.25.

As to QIIG, the enrichment ratio is not above 0.25.

As for PICV, the enrichment ratio was not above 0.25.

Turning to MMGC, the enrichment ratio is not above 0.25.

Regarding HALH, the enrichment ratio is 3.81.

Take HHYA: the enrichment ratio was not above 0.25.

As to QHAD, the enrichment ratio was not above 0.25.

Regarding GQIS, the enrichment ratio is not above 0.25.

Consider HLTD, for which the enrichment ratio was not above 0.25.

Turning to EGMI, the enrichment ratio is not above 0.25.

Take DTTR: the enrichment ratio is not above 0.25.

Turning to GTWN, the enrichment ratio was not above 0.25.

In the case of NSAR, the enrichment ratio is not above 0.25.

For TFMS, the enrichment ratio was found to be 1.78.

On to NFSM, for which the enrichment ratio is not above 0.25.

SGWS: the enrichment ratio is not above 0.25.

As for IKHL, the enrichment ratio was not above 0.25.

For PYYD, the enrichment ratio is not above 0.25.

On to TEPP, for which the enrichment ratio is not above 0.25.

Regarding TAQV, the enrichment ratio stood at 5.92.

Consider LSTW, for which the enrichment ratio is not above 0.25.

On to ITRL, for which the enrichment ratio was not above 0.25.

Consider YAVI, for which the enrichment ratio was not above 0.25.

With VAKR, the enrichment ratio was not above 0.25.

Regarding PLHT, the enrichment ratio was not above 0.25.

Consider QQNS, for which the enrichment ratio was found to be 8.87.

For the variant SGPT, the enrichment ratio is not above 0.25.

With SPIM, the enrichment ratio was not above 0.25.

In the case of WHYN, the enrichment ratio is not above 0.25.

As for PNMC, the enrichment ratio is not above 0.25.

In the case of MMKG, the enrichment ratio was not above 0.25.

In the case of KLCL, the enrichment ratio is not above 0.25.

MQSE: the enrichment ratio is not above 0.25.

Consider HMFA, for which the enrichment ratio is not above 0.25.

As for WFLY, the enrichment ratio was not above 0.25.

Consider FRML, for which the enrichment ratio is not above 0.25.

For the variant MYYH, the enrichment ratio was not above 0.25.

Take PECT: the enrichment ratio was not above 0.25.

SKDK: the enrichment ratio is not above 0.25.

As for FHFG, the enrichment ratio is not above 0.25.

Consider SIYL, for which the enrichment ratio was not above 0.25.

On to NPHV, for which the enrichment ratio came to 0.966.

As for RNNH, the enrichment ratio is not above 0.25.

For RWQI, the enrichment ratio is not above 0.25.

In the case of DHAT, the enrichment ratio is not above 0.25.

With MGGA, the enrichment ratio amounted to 24.1.

With YNHY, the enrichment ratio was not above 0.25.

As to ECDP, the enrichment ratio is not above 0.25.

Take RVYF: the enrichment ratio is not above 0.25.

Regarding HKKA, the enrichment ratio was not above 0.25.
